From patent US11618753B2 (priority 2018, dated 2023)

The molecules below were run on MLKL phosphorylation, HT29-L23 human colorectal adenocarcinoma cells (assay: cells). Details: read-out: pMLKL HCS Cell Assay (IC50, uM).

Question: With `Nc1ncnn2c(-c3cccc(C(=O)N[C@@H]4CN(C(=O)C5CCC(F)(F)CC5)C[C@@H]4F)c3)cc(CN3CC(F)(F)C3)c12` [Example 1179, 3-{4-amino-5-[(3,3-difluoroazetidin-1-yl)methyl]pyrrolo[2,1-f][1,2,4]triazin-7-yl}-N-[(3R,4S)-1-(4,4-difluorocyclohexanecarbonyl)-4-fluoropyrrolidin-3-yl]benzamide] as the molecule, how does the IC50 read?
Answer: 0.0024 µM

Question: `Nc1ncnn2c(-c3ccc(OC(F)F)c(C(=O)N[C@@H]4CN(C(=O)C5CCC(F)(F)CC5)C[C@@H]4F)c3)cc(C(F)(F)F)c12` [Example 1090, 5-[4-amino-5-(trifluoromethyl)pyrrolo[2,1-f][1,2,4]triazin-7-yl]-N-[(3R,4S)-1-(4,4-difluorocyclohexanecarbonyl)-4-fluoropyrrolidin-3-yl]-2-(difluoromethoxy)benzamide] was tested. Which IC50 did it give?
Answer: 0.041 µM

Question: With `Nc1ncnn2c(-c3ccc(OC(F)(F)F)c(C(=O)N[C@@H]4CN(C(=O)C5CC(F)C5)C[C@@H]4F)c3)cc(C(F)(F)F)c12` (stereo partly drawn) [Example 1053, 5-[4-amino-5-(trifluoromethyl)pyrrolo[2,1-f][1,2,4]triazin-7-yl]-N-[(3R,4S)-4-fluoro-1-(3-fluorocyclobutanecarbonyl)pyrrolidin-3-yl]-2-(trifluoromethoxy)benzamide] as the molecule, how does the IC50 read?
Answer: 0.231 µM

Question: Which IC50 does the source give for `Nc1ncnn2c(-c3cnc(F)c(C(=O)NCC[C@@H](O)c4ccc(Cl)cc4)c3)cc(C(F)(F)F)c12` [Example 269, 5-[4-amino-5-(trifluoromethyl)pyrrolo[2,1-f][1,2,4]triazin-7-yl]-N-[(3R)-3-(4-chlorophenyl)-3-hydroxypropyl]-2-fluoropyridine-3-carboxamide] here?
Answer: 0.028 µM

Question: For `COc1ncc(-c2cc(C(F)(F)F)c3c(N)ncnn23)cc1C(=O)NC1CN(Cc2c(C)noc2C)CC1F` (racemic) [Example 209, 5-[4-amino-5-(trifluoromethyl)pyrrolo[2,1-f][1,2,4]triazin-7-yl]-N-{1-[(3,5-dimethyl-1,2-oxazol-4-yl)methyl]-4-fluoropyrrolidin-3-yl}-2-methoxypyridine-3-carboxamide], which IC50 is on record?
Answer: 0.181 µM

Question: With `Cc1ccc(-c2cc(C(F)(F)F)c3c(N)ncnn23)cc1C(=O)N[C@@H]1CN(C(=O)CC(C)(O)C(F)(F)F)C[C@@H]1F` (stereo partly drawn) [Example 995, 5-[4-amino-5-(trifluoromethyl)pyrrolo[2,1-f][1,2,4]triazin-7-yl]-N-[(3R,4S)-4-fluoro-1-(4,4,4-trifluoro-3-hydroxy-3-methylbutanoyl)pyrrolidin-3-yl]-2-methylbenzamide] as the molecule, how does the IC50 read?
Answer: 0.0024 µM

Question: With `COc1ncc(-c2cc(C(F)(F)F)c3c(N)ncnn23)cc1C(=O)Nc1cnn(CC(C)(O)C(F)(F)F)c1` (stereo not shown) [Example 1788, 5-(4-amino-5-(trifluoromethyl)pyrrolo[2,1-f][1,2,4]triazin-7-yl)-2-methoxy-N-(1-(3,3,3-trifluoro-2-hydroxy-2-methylpropyl)-1H-pyrazol-4-yl)nicotinamide] as the molecule, how does the IC50 read?
Answer: 0.131 µM

Question: `COc1ncc(-c2cc(C(F)(F)F)c3c(N)ncnn23)cc1C(=O)NC1CN(C(C)c2cccc(OC(F)(F)F)c2)C[C@@H]1F` (stereo partly drawn) [Example 1394, 5-[4-amino-5-(trifluoromethyl)-pyrrolo[2,1-f][1,2,4]triazin-7-yl]-N-[(3R,4S)-4-fluoro-1-{1-[3-(trifluoromethoxy)phenyl]-ethyl}pyrrolidin-3-yl]-2-methoxypyridine-3-carbox-amide] was tested. Which IC50 did it give?
Answer: 0.3 µM

Question: How did the IC50 turn out when `COc1ncc(-c2cc(C(F)(F)F)c3c(N)ncnn23)cc1C(=O)N[C@@H]1CN(S(=O)(=O)Cc2ccc(F)cc2)C[C@@H]1F` [Example 1488, 5-[4-amino-5-(trifluoromethyl)pyrrolo[2,1-f][1,2,4]triazin-7-yl]-N-[(3R,4S)-4-fluoro-1-[(4-fluorophenyl)methanesulfonyl]pyrrolidin-3-yl]-2-methoxypyridine-3-carboxamide] was run?
Answer: 0.015 µM

Question: For `Cc1ccc(-c2cc(C(F)(F)F)c3c(N)ncnn23)cc1C(=O)Nc1cn(C(c2ccc(F)cc2)C(F)(F)F)cn1` (stereo not shown) [Example 1818, 5-(4-amino-5-(trifluoromethyl)pyrrolo[2,1-f][1,2,4]triazin-7-yl)-2-methyl-N-(1-(2,2,2-trifluoro-1-(4-fluorophenyl)ethyl)-1H-imidazol-4-yl)benzamide], which IC50 is on record?
Answer: 0.0051 µM

Question: For `COc1c(F)cc(-c2cc(C(F)(F)F)c3c(N)ncnn23)cc1C(=O)N[C@@H]1CN(C(=O)C(C)C(F)(F)F)C[C@@H]1F` (stereo partly drawn) [Example 694, 5-[4-amino-5-(trifluoromethyl)pyrrolo[2,1-f][1,2,4]triazin-7-yl]-3-fluoro-N-[(3R,4S)-4-fluoro-1-(3,3,3-trifluoro-2-methylpropanoyl)pyrrolidin-3-yl]-2-methoxybenzamide], which IC50 is on record?
Answer: 0.026 µM

Question: For `COc1ncc(-c2cc(CN3CCC(F)(F)CC3)c3c(N)ncnn23)cc1C(=O)N[C@@H]1CN(C(=O)OCCC(F)(F)F)C[C@@H]1F` [Example 1503, 3,3,3-trifluoropropyl (3R,4S)-3-(5-{4-amino-5-[(4,4-difluoropiperidin-1-yl)methyl]pyrrolo[2,1-f][1,2,4]triazin-7-yl}-2-methoxypyridine-3-amido)-4-fluoropyrrolidine-1-carboxylate], which IC50 is on record?
Answer: 0.0029 µM

Question: How did the IC50 turn out when `Nc1ncnn2c(-c3ccc(OC(F)F)c(C(=O)N[C@@H]4CN(C(=O)C5(F)CC5)C[C@@H]4F)c3)cc(C(F)(F)F)c12` [Example 1079, 5-[4-amino-5-(trifluoromethyl)pyrrolo[2,1-f][1,2,4]triazin-7-yl]-2-(difluoromethoxy)-N-[(3R,4S)-4-fluoro-1-(1-fluorocyclopropanecarbonyl)pyrrolidin-3-yl]benzamide] was run?
Answer: 0.04 µM

Question: For `COc1ncc(-c2cc(CN3CC(F)(F)C3)c3c(N)ncnn23)cc1C(=O)N[C@@H]1CN(C(=O)C2CCC(F)(F)C2)C[C@@H]1F` (stereo partly drawn) [Example 1620, 5-{4-amino-5-[(3,3-difluoroazetidin-1-yl)methyl]pyrrolo[2,1-f][1,2,4]triazin-7-yl}-N-[(3R,4S)-1-(3,3-difluorocyclopentanecarbonyl)-4-fluoropyrrolidin-3-yl]-2-methoxypyridine-3-carboxamide], which IC50 is on record?
Answer: 0.00096 µM

Question: With `Cc1ncc(-c2cc(C(F)(F)F)c3c(N)ncnn23)cc1C(=O)Nc1ccn(C(c2ccccc2)C(F)(F)F)n1` (stereo not shown) [Example 1816, 5-(4-amino-5-(trifluoromethyl)pyrrolo[2,1-f][1,2,4]triazin-7-yl)-2-methyl-N-(1-(2,2,2-trifluoro-1-phenylethyl)-1H-pyrazol-3-yl)nicotinamide] as the molecule, how does the IC50 read?
Answer: 0.0056 µM

Question: With `CC(CC(=O)N1C[C@H](F)[C@H](NC(=O)c2cc(-c3cc(C(F)(F)F)c4c(N)ncnn34)ccc2OCC(F)(F)F)C1)C(F)(F)F` (stereo partly drawn) [Example 1065, 5-[4-amino-5-(trifluoromethyl)pyrrolo[2,1-f][1,2,4]triazin-7-yl]-N-[(3R,4S)-4-fluoro-1-(4,4,4-trifluoro-3-methylbutanoyl)pyrrolidin-3-yl]-2-(2,2,2-trifluoroethoxy)benzamide] as the molecule, how does the IC50 read?
Answer: 0.096 µM

Question: With `Cc1ncc(-c2cc(C(F)(F)F)c3c(N)ncnn23)cc1C(=O)NCC(C)(O)C(O)c1cccc(F)c1` (stereo not shown) [Example 1758, 5-(4-amino-5-(trifluoromethyl)pyrrolo[2,1-f][1,2,4]triazin-7-yl)-N-(3-(3-fluorophenyl)-2,3-dihydroxy-2-methylpropyl)-2-methylnicotinamide] as the molecule, how does the IC50 read?
Answer: 0.018 µM

Question: With `[2H]C([2H])([2H])Oc1ncc(-c2cc(CN3CC(F)(F)C3)c3c(N)ncnn23)cc1C(=O)N[C@@H]1CN(S(=O)(=O)C2CC2)C[C@@H]1F` [Example 1284, 5-{4-amino-5-[(3,3-difluoroazetidin-1-yl)methyl]pyrrolo[2,1-f][1,2,4]triazin-7-yl}-N-[(3R,4S)-1-(cyclopropanesulfonyl)-4-fluoropyrrolidin-3-yl]-2-(methoxy-d3)nicotinamide] as the molecule, how does the IC50 read?
Answer: 0.0017 µM

Question: `COCc1cc(-c2cnc(OC)c(C(=O)Nc3cnn(Cc4ccccc4)c3)c2)n2ncnc(N)c12` [Example 49, 5-(4-amino-5-(methoxymethyl)pyrrolo[2,1-f][1,2,4]triazin-7-yl)-N-(1-benzyl-1H-pyrazol-4-yl)-2-methoxynicotinamide] was tested. Which IC50 did it give?
Answer: 0.00046 µM

Question: `COc1ncc(-c2cc(C(F)(F)F)c3c(N)ncnn23)cc1C(=O)N[C@@H]1CN(C(=O)OC(C)C)C[C@@H]1F` [Example 1443, propan-2-yl (3R,4S)-3-{5-[4-amino-5-(trifluoromethyl)pyrrolo[2,1-f][1,2,4]triazin-7-yl]-2-methoxypyridine-3-amido}-4-fluoropyrrolidine-1-carboxylate] was tested. Which IC50 did it give?
Answer: 0.0029 µM

Question: Which IC50 does the source give for `COCC(C)OC(=O)N1C[C@H](F)[C@H](NC(=O)c2cc(-c3cc(C(F)(F)F)c4c(N)ncnn34)cnc2OC)C1` (stereo partly drawn) [Example 1429, 1-methoxypropan-2-yl (3R,4S)-3-{5-[4-amino-5-(trifluoromethyl)pyrrolo[2,1-f][1,2,4]triazin-7-yl]-2-methoxypyridine-3-amido}-4-fluoropyrrolidine-1-carboxylate] here?
Answer: 0.028 µM

Question: For `COc1ncc(-c2cc(C(F)(F)F)c3c(N)ncnn23)cc1C(=O)N[C@@H]1CN(C(=O)c2ccc(F)cc2)C[C@@H]1F` [Example 43, 5-[4-amino-5-(trifluoromethyl)pyrrolo[2,1-f][1,2,4]triazin-7-yl]-N-[(3R,4S)-4-fluoro-1-(4-fluorobenzoyl)pyrrolidin-3-yl]-2-methoxypyridine-3-carboxamide], which IC50 is on record?
Answer: 0.011 µM

Question: With `Cc1cc(F)c(-c2cc(C(F)(F)F)c3c(N)ncnn23)cc1C(=O)N[C@@H]1CN(C(=O)CC(C)(C)O)C[C@@H]1F` [Example 413, 5-[4-amino-5-(trifluoromethyl)pyrrolo[2,1-f][1,2,4]triazin-7-yl]-4-fluoro-N-[(3R,4S)-4-fluoro-1-(3-hydroxy-3-methylbutanoyl)pyrrolidin-3-yl]-2-methylbenzamide] as the molecule, how does the IC50 read?
Answer: 0.048 µM

Question: `CC(C)(F)C(=O)N1C[C@H](F)[C@H](NC(=O)c2cc(-c3cc(C(F)(F)F)c4c(N)ncnn34)ccc2OC(F)(F)F)C1` [Example 1056, 5-[4-amino-5-(trifluoromethyl)pyrrolo[2,1-f][1,2,4]triazin-7-yl]-N-[(3R,4S)-4-fluoro-1-(2-fluoro-2-methylpropanoyl)pyrrolidin-3-yl]-2-(trifluoromethoxy)benzamide] was tested. Which IC50 did it give?
Answer: 0.295 µM

Question: `Cc1c(F)cc(-c2cc(C(F)(F)F)c3c(N)ncnn23)cc1C(=O)N[C@@H]1CN(C(=O)CC(C)C(F)(F)F)C[C@@H]1F` (stereo partly drawn) [Example 662, 5-[4-amino-5-(trifluoromethyl)pyrrolo[2,1-f][1,2,4]triazin-7-yl]-3-fluoro-N-[(3R,4S)-4-fluoro-1-(4,4,4-trifluoro-3-methylbutanoyl)pyrrolidin-3-yl]-2-methylbenzamide] was tested. Which IC50 did it give?
Answer: 0.0014 µM
